20 molecules from PMC9911399, “Two distinct binding modes provide the RNA-binding protein RbFox with extraordinary sequence specificity” can be followed below.

Changes are numbered by the printed parent chain; changes in the protein carry UniProt numbers. Some of the results follow.

T1: RBFOX1 RRM (Homo sapiens, UniProt Q9NWB1 109-208)
T1 sequence: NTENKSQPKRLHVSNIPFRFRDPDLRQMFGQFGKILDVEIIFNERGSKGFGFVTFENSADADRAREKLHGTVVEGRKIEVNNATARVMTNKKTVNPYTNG

B1: AACCAUG (DNA:RNA)
RNA: GGGAGACCGGAAUUCAGAUUGUCCAACCAUGUUAAAUCCCGUCGUAGCCACCA
DNA 1: CAATCTGAATTCCGGTCTCCC
DNA 2: TGGTGGCTACGACGGGATT
B2: GUCUACA (DNA:RNA)
RNA: B1 RNA with A25G, A26U, C28U, U30C, G31A
DNA 1: CAATCTGAATTCCGGTCTCCC
DNA 2: TGGTGGCTACGACGGGATT
B3: UAUGAGG (DNA:RNA)
RNA: B1 RNA with A25U, C27U, C28G, U30G
DNA 1: CAATCTGAATTCCGGTCTCCC
DNA 2: TGGTGGCTACGACGGGATT
B4: CUUUCUG (DNA:RNA)
RNA: B1 RNA with A25C, A26U, C27U, C28U, A29C
DNA 1: CAATCTGAATTCCGGTCTCCC
DNA 2: TGGTGGCTACGACGGGATT
B5: CAUAACC (DNA:RNA)
RNA: B1 RNA with A25C, C27U, C28A, U30C, G31C
DNA 1: CAATCTGAATTCCGGTCTCCC
DNA 2: TGGTGGCTACGACGGGATT
B6: CCAUCUU (DNA:RNA)
RNA: B1 RNA with A25C, A26C, C27A, C28U, A29C, G31U
DNA 1: CAATCTGAATTCCGGTCTCCC
DNA 2: TGGTGGCTACGACGGGATT
B7: CAAAUUC (DNA:RNA)
RNA: B1 RNA with A25C, C27A, C28A, A29U, G31C
DNA 1: CAATCTGAATTCCGGTCTCCC
DNA 2: TGGTGGCTACGACGGGATT
B8: CAACGCU (DNA:RNA)
RNA: B1 RNA with A25C, C27A, A29G, U30C, G31U
DNA 1: CAATCTGAATTCCGGTCTCCC
DNA 2: TGGTGGCTACGACGGGATT
B9: CGGGACU (DNA:RNA)
RNA: B1 RNA with A25C, A26G, C27G, C28G, U30C, G31U
DNA 1: CAATCTGAATTCCGGTCTCCC
DNA 2: TGGTGGCTACGACGGGATT
B10: UCCCACU (DNA:RNA)
RNA: B1 RNA with A25U, A26C, U30C, G31U
DNA 1: CAATCTGAATTCCGGTCTCCC
DNA 2: TGGTGGCTACGACGGGATT
B11: CUGCCAG (DNA:RNA)
RNA: B1 RNA with A25C, A26U, C27G, A29C, U30A
DNA 1: CAATCTGAATTCCGGTCTCCC
DNA 2: TGGTGGCTACGACGGGATT
B12: ACCAAAC (DNA:RNA)
RNA: B1 RNA with A26C, C28A, U30A, G31C
DNA 1: CAATCTGAATTCCGGTCTCCC
DNA 2: TGGTGGCTACGACGGGATT
B13: GGGCCAA (DNA:RNA)
RNA: B1 RNA with A25G, A26G, C27G, A29C, U30A, G31A
DNA 1: CAATCTGAATTCCGGTCTCCC
DNA 2: TGGTGGCTACGACGGGATT
B14: UCUAGAG (DNA:RNA)
RNA: B1 RNA with A25U, A26C, C27U, C28A, A29G, U30A
DNA 1: CAATCTGAATTCCGGTCTCCC
DNA 2: TGGTGGCTACGACGGGATT
B15: CUUCGGU (DNA:RNA)
RNA: B1 RNA with A25C, A26U, C27U, A29G, U30G, G31U
DNA 1: CAATCTGAATTCCGGTCTCCC
DNA 2: TGGTGGCTACGACGGGATT
B16: GAUGGCU (DNA:RNA)
RNA: B1 RNA with A25G, C27U, C28G, A29G, U30C, G31U
DNA 1: CAATCTGAATTCCGGTCTCCC
DNA 2: TGGTGGCTACGACGGGATT
B17: CACUACA (DNA:RNA)
RNA: B1 RNA with A25C, C28U, U30C, G31A
DNA 1: CAATCTGAATTCCGGTCTCCC
DNA 2: TGGTGGCTACGACGGGATT
B18: CAUCAUU (DNA:RNA)
RNA: B1 RNA with A25C, C27U, G31U
DNA 1: CAATCTGAATTCCGGTCTCCC
DNA 2: TGGTGGCTACGACGGGATT
B19: CAACAAU (DNA:RNA)
RNA: B1 RNA with A25C, C27A, U30A, G31U
DNA 1: CAATCTGAATTCCGGTCTCCC
DNA 2: TGGTGGCTACGACGGGATT
B20: GCGGCCU (DNA:RNA)
RNA: GGGAGACCGGAAUUCAGAUUGUCCGCGGCCUUUAAAUCCCGUCGUAGCCACCA
DNA 1: CAATCTGAATTCCGGTCTCCC
DNA 2: TGGTGGCTACGACGGGATT

This assay concerns the target T1, RBFOX1 RRM. Description: EMSA; HiTS-Eq, 1 nM pool, 10 min; buffer printed only for the single-RNA assays: 10 mM Tris pH 7.5, 150 mM NaCl, 3.4 mM EDTA, 0.001% NP-40, 30 C. Particulars: tags: His6 N-terminal (pET28a); label: 5' 32P. The gist of the method:
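Purified wild-type or mutant RbFox RRM at increasing concentrations was equilibrated with 1 nM of 5′-radiolabelled RNA carrying 7 randomized nucleotides for 10 min in 50 µL. Unbound RNA was separated by 8% native PAGE and sequenced. Relative association constants came from read-count changes of each RNA species compared with the control reaction, normalised to the cognate motif.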
(In EMSA bound probe runs differently from free probe, usually more slowly.)
Consider B1, for which the binding signal is 0.00396 KA relative to UGCAUGU.

For B2, the binding signal was 0.00434 KA relative to UGCAUGU.

Take B3: the binding signal is 0.0088 KA relative to UGCAUGU.

Regarding B4, the binding signal is 0.0195 KA relative to UGCAUGU.

Turning to B5, the binding signal is 0.000335 KA relative to UGCAUGU.

For B6, the binding signal was 0.00216 KA relative to UGCAUGU.

In the case of B7, the binding signal was 0.00405 KA relative to UGCAUGU.

For B8, the binding signal was 0.00299 KA relative to UGCAUGU.

In the case of B9, the binding signal was 0.019 KA relative to UGCAUGU.

As to B10, the binding signal is 0.0106 KA relative to UGCAUGU.

Take B11: the binding signal is 0.0171 KA relative to UGCAUGU.

On to B12, for which the binding signal is 0.00153 KA relative to UGCAUGU.

For B13, the binding signal is 0.0082 KA relative to UGCAUGU.

As for B14, the binding signal is 0.0131 KA relative to UGCAUGU.

As to B15, the binding signal was 0.013 KA relative to UGCAUGU.

Turning to B16, the binding signal is 0.0216 KA relative to UGCAUGU.

In the case of B17, the binding signal is 0.00157 KA relative to UGCAUGU.

In the case of B18, the binding signal is 0.00301 KA relative to UGCAUGU.

For the molecule B19, the binding signal is 0.000214 KA relative to UGCAUGU.

As for B20, the binding signal is 0.0282 KA relative to UGCAUGU.
